Test results published in PubChem BioAssay AID485344 (National Center for Advancing Translational Sciences (NCATS), 2010).
The whole screen tested about 340,000 compounds, of which about 6,900 (2%) were called active. No stated cut-off is given here; in the data, active means inhibition above about 30%; inactive means below that, where a call was filed. The entries are a selection whose mix differs from that of the whole data set. Where no call is shown, the source filed none.

biological target: D(2) dopamine receptor (Homo sapiens) (UniProt P14416); test: HTS Assay for Allosteric Antagonists of the Human D2 Dopamine Receptor: Primary Screen for Antagonists; details: HEK293 TREx D2 cells, calcium flux, dopamine EC80; at 10 µM; stronger effect = higher value; further: 0% is about no effect
UniProt P14416, sequence (P14416 whole entry, looked up): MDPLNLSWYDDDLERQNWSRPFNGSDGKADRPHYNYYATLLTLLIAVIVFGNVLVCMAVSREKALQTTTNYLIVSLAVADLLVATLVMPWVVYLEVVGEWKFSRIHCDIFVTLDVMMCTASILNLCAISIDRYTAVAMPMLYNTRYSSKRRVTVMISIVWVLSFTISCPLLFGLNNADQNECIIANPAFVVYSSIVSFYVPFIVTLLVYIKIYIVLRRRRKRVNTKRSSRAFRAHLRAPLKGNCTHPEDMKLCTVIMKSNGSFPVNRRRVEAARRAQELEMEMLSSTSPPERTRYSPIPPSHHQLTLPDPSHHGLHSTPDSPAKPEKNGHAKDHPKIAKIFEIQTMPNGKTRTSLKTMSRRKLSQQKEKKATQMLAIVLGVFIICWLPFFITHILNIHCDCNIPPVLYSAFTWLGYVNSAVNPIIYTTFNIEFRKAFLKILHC
Summary of the method: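 Dopamine at EC80 is the agonist stimulus; test compounds precede it by 180 s. Calcium flux read kinetically in a force-coupled, inducible HEK293 T-REx D2 cell line.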

| Compound | inhibition |
| --- | --- |
| CCOc1ccc(N(C(=O)c2ccc(Cl)cc2)S(=O)(=O)c2ccc3c(c2)n(C)c(=O)n3C)cc1 | 6.41% |
| O=C(CC1N=C2c3ccccc3N=C(SCc3ccc(F)cc3)N2C1=O)NC1CCCCC1 (configuration not stated) | 5.11% |
| CCOc1ccc(CCNC(=O)c2cccc(Nc3nc4ccccc4nc3-n3nc(C)cc3C)c2)cc1OCC | -0.843% |
| Cc1ccc(C(=O)Nc2ccccc2C(=O)OCc2cc(=O)n3nc(C(C)C)sc3n2)cc1 | -5.4% |
| Cc1ccc(C)c(NC(=O)CN(C)S(=O)(=O)c2cccc3cccnc23)c1 | 1.2% |
| CCOc1ccccc1NC(=O)C1CCC(CNS(=O)(=O)c2ccc3c(c2)CCCC(=O)N3)CC1 (configuration not stated) | 0.663% |
| Cc1cccc(N2CCN(C(c3ccccc3)c3nnc(-c4ccccc4F)o3)CC2)c1C (configuration not stated) | 19.4% |
| Fc1ccc(Nc2nc(SCc3ccccc3Cl)nc3ccccc23)cc1 | 14.6% |
| Cc1cc(C)cc(NC(=O)C2CCCN(S(=O)(=O)c3cccc4nsnc34)C2)c1 (configuration not stated) | -0.281% |
| NC(=O)C1CCN(C(=O)c2ccc3c(c2)N(Cc2cccc(Cl)c2)C(=O)c2ccccc2S3=O)CC1 (configuration not stated) | -8.37% |
| Cc1csc2nc(COC(=O)CNC(=O)c3ccc(F)cc3)cc(=O)n12 | -3.16% |
| COc1cc(OC)c2c(-c3ccccc3)cc(=O)oc2c1C(CC(=O)N1CCN(c2ccccc2)CC1)c1ccc(N(C)C)cc1 (configuration not stated) | active: 48% |
| COc1ccc(CSc2nc3ccncc3n2CC(=O)Nc2cc(C)cc(C)c2)cc1 | -1.63% |
| CCOC(=O)c1c(C)[nH]c(C)c1S(=O)(=O)NCC(=O)Nc1ccc(C)cc1C | -2.22% |
| O=C(Cn1c(=O)n(-c2ccc(F)cc2)c(=O)c2sc3ccccc3c21)NC1CCCC1 | -7.36% |
| COc1ccc(-n2nc3ccc(NC(=O)c4c(OC)cccc4OC)cc3n2)cc1 | 16.6% |
| CCc1ccc2oc(C(=O)Nc3ccccc3OC)cc(=O)c2c1 | -28.4% |
| CCc1nc2ccccc2n2c(-c3ccc(C)cc3)c3c(=O)n(C)c(=O)n(C)c3c12 | 1.04% |
| CCc1ccc(C(=O)CC2(O)C(=O)N(CCc3ccccc3)c3ccc(Br)cc32)cc1 (configuration not stated) | 0.463% |
| CCc1c(C)sc2c1CCN(Cc1cccc(OC)c1)C2c1ccccc1 (configuration not stated) | -27.2% |
| CCC1=Nc2cc(C(=O)NCCc3ccc(OC)c(OC)c3)ccc2Sc2ccccc21 | 1.67% |
| CCCCN(CCCC)CCNC(=O)Cn1nc(CC)n2c(cc3sccc32)c1=O | 4.73% |
| Cc1ccc(CNC(=O)C(NS(=O)(=O)c2cccs2)C(C)C)cc1 (configuration not stated) | -25.3% |

| Compound | inhibition |
| --- | --- |
| COc1ccc(CCC(=O)NCc2ccc3c(c2)CCN3C(=O)c2ccc(Cl)cc2)cc1 | 17.2% |
| COC(=O)c1ccc(Cl)cc1NC(=O)Nc1nnc(N(C)C2CCCCC2)s1 | 12% |
| Cc1ccc(CSC2=Nc3ccccc3C3=NC(CCC(=O)NC4CCCCC4)C(=O)N23)cc1 (configuration not stated) | 10.6% |
| CC(=O)c1cccc(NC(=O)CSc2nc3c(c(=O)[nH]2)CCC3)c1 | 7.31% |
| CCc1ccc(NCc2cc3ccc(OC)cc3n(CC(=O)Nc3ccccc3C)c2=O)cc1 | -0.116% |
| OC(COCc1ccccc1)CN1CCN(c2ccccc2)CC1 (configuration not stated) | active: 85.7% |
| CN(c1ccccc1)S(=O)(=O)c1cccc(C(=O)NCc2ccccc2CN2CCCC2)c1 | active: 39.3% |
| COc1ccc(NC(=O)CSc2nc(-c3cccs3)cc(C(F)(F)F)n2)cc1Cl | 12.7% |
| COc1ccccc1NC(=O)C1=C(C)Nc2c(C(=O)Nc3ccc(C)cc3)cnn2C1c1cccc(OC)c1OC (configuration not stated) | 4.38% |
| Cc1ccccc1NC(=O)c1cc2c(-c3ccccc3)nn(-c3ccccc3)c2s1 | -2.17% |
| COc1ccc(N(Cc2ccccc2)C(=O)c2nc(S(C)(=O)=O)ncc2Cl)cc1 | 2.76% |
| Cc1cccc(N2CCN(C(=O)Cn3nc(C)c4sc5ccccc5c4c3=O)CC2)c1C | 6.44% |
| COc1cccc(C(=O)Nc2ccc(-n3nncc3-c3ccccc3)cc2)c1OC | -5.97% |
| CCCSCCCNC(=O)C1CCN(C(=O)c2cnn(-c3ccccc3)c2-n2cccc2)CC1 | 1.08% |
| COc1ccc(CNC(=O)Cn2c(=O)nc(-c3ccccc3)c3cc(Cl)ccc32)cc1OC | 16.5% |
| CCOc1ccc(C2=NC(c3ccncc3)=Nc3ccc(C)cc3N2)cc1OCC | -10.4% |
| O=C(CCNC(=O)C1CCN(S(=O)(=O)c2ccc(F)cc2)CC1)NCc1ccc(F)cc1 | active: 32.7% |
| COCc1cc(C)nc2sc(C(=O)Nc3ccccc3O)c(N)c12 | 13.3% |
| COc1ccc(C2CC(=O)c3c([nH]c(C(=O)OCc4ccccc4)c3C)C2)cc1 (configuration not stated) | 9.94% |
| Cc1ccc(OCCn2cc(C(=O)c3cccs3)c3ccccc32)cc1 | 6.84% |
| CSc1nn(CC(=O)Nc2ccccc2F)c(N)c1S(=O)(=O)c1ccccc1 | -3.52% |
| COc1ccc(CNC(=O)Cc2c(C)c3cc4c(C)coc4cc3oc2=O)cc1 | 10.1% |
| Cc1nc2c(C(=O)NCCC(C)C)c[nH]n2c(=O)c1Cc1ccccc1F | active: 37.1% |

| Compound | inhibition |
| --- | --- |
| COCCCNC(=O)Cn1c(=O)n(-c2cccc(C)c2)c(=O)c2c1c1cc(C)ccc1n2C | -21.2% |
| CCc1ccc(NC(=O)CCc2c(C)nc3nc(-c4cc(OC)cc(OC)c4)nn3c2C)cc1 | 26.6% |
| Cc1ccc(N2CCn3c2nc2c3c(=O)n(C/C=C/c3ccccc3)c(=O)n2C)cc1C | -21.8% |
| COc1ccc(-c2noc(CCCC(=O)Nc3cccc(Cl)c3C)n2)cc1 | -9.91% |
| Cc1ccc(CN2CCSc3ccc(C(=O)NCc4ccc(OC(C)C)cc4)cc32)cc1 | 12.9% |
| COc1ccc(S(=O)(=O)N2CCC(N3CCN(Cc4ccccc4)C(=O)C3=O)CC2)cc1 | 3.1% |
| CCn1c2ccccc2c2nnc(N3CCN(c4cccc(Cl)c4)CC3)nc21 | -16.4% |
| CCOC(=O)c1c(C)[nH]c(CCC(=O)NCc2ccc(OC)c(OC)c2)c1C | -23.2% |
| O=C(O)COc1ccc2c3c(c(=O)oc2c1)CCC3 | active: 38.8% |
| C#CC(C)(CC)NC(=O)Cn1nnc(-c2ccc(OCc3ccccc3C)cc2)n1 (configuration not stated) | -11.6% |
| Cc1cccc(-c2nn3c(=O)cc(CN4CCN(C(=O)c5ccccc5Br)CC4)nc3s2)c1 | 3.59% |
| COc1ccccc1N1CCN(C(=O)c2cnn(-c3cccc(Cl)c3)c2C2CCN(C(=O)OC(C)(C)C)CC2)CC1 | 6.89% |
| CCCn1c2ccccc2c2cnn(CC(=O)NCC3CCN(Cc4ccc(F)cc4)CC3)c(=O)c21 | -8.59% |
| CCc1ccccc1NC(=O)c1cc(S(=O)(=O)N2CCc3ccccc32)ccc1F | 17.8% |
| COc1ccccc1CNc1nc(-c2ccco2)nn1C(=O)c1cc(OC)c(OC)c(OC)c1 | -11.5% |
| Cc1ccccc1CNC(=O)C1=Cc2ccccc2OC1 | 9.33% |
| O=C(Nc1cccc(C(F)(F)F)c1)C1CC(=O)N(CCc2ccccc2)C1 (configuration not stated) | active: 62.5% |
| CCc1nc(SC)ncc1C(=O)N1CCN(c2cc(Cl)ccc2C)CC1 | 3.74% |
| CC(NC(=O)C1CCN(S(=O)(=O)c2ccccc2)CC1)c1ccccc1 (configuration not stated) | 4.27% |
| Cc1nn(C(C)C(=O)Nc2ccc(C(C)C)cc2)c(=O)c2c1sc1ccccc12 (configuration not stated) | 4.41% |
| COc1cc(/C=C(\C#N)c2nc3ccccc3[nH]2)ccc1OCc1ccc(F)cc1 | -4.08% |
| COc1cc(-c2nc(SCC(=O)Nc3ccc(C)cc3)c(-c3ccc(F)cc3)[nH]2)cc(OC)c1OC | -4.29% |
| CCCN(CCC)CCCNC(=O)c1cnn(-c2ccc(F)cc2)c1-n1cccc1 | -10.6% |

| Compound | inhibition |
| --- | --- |
| CCCCn1c(=N)c(S(=O)(=O)c2ccc(C)cc2)cc2c(=O)n3cc(C)ccc3nc21 | -1.85% |
| O=C(Nc1ccc(-c2nc3cc(NC(=O)c4ccc(F)cc4)ccc3o2)cc1)c1ccc(F)cc1 | -9.9% |
| CCc1nn2c(=O)cc(COC(=O)c3ccc(NC(=O)CCc4ccccc4)cc3)nc2s1 | 1.54% |
| O=C(COc1ccccc1)N(Cc1cccnc1)c1nc2c(F)cccc2s1 | 11.1% |
| Nc1ccc(NC(=O)c2cccc(C(=O)Nc3ccc(N)cc3Cl)c2)c(Cl)c1 | 0.393% |
| Cc1ccc(-c2nnc(Nc3ccc(OC(F)(F)Cl)cc3)c3ccccc23)cc1S(=O)(=O)NC(C)(C)CO | 11.1% |
| CC(=O)N1CCc2c(sc3nc(SCC(C)C)n(-c4ccc(C)c(Cl)c4)c(=O)c23)C1 | 4.57% |
| Cc1nc2scc(C)n2c(=O)c1S(=O)(=O)Nc1ccc(N2CCN(S(C)(=O)=O)CC2)cc1 | -5.64% |
| O=C(CN1C(=O)COc2ccc(S(=O)(=O)N3CCCCCC3)cc21)Nc1cccc(Cl)c1 | 0.298% |
| COc1ccc(S(=O)(=O)N2CCC(NC(=O)OCc3c(Cl)cccc3Cl)CC2)cc1 | active: 34.6% |
| COc1ccc(-c2cc(C(=O)Oc3ccc(C)cc3)c3cc(C)ccc3n2)cc1 | -4.94% |
| Cc1cc(=O)n(C(C)C(=O)N2CCCc3ccccc32)c2c1c(C)nn2-c1ccccc1 (configuration not stated) | 17.9% |
| CC1CCN(c2nn3c(=O)c(C(=O)NCCc4ccccc4)cnc3s2)CC1 | -9.16% |
| CC(/C=N/NC(=O)c1cccc(F)c1)=C\c1ccccc1 | active: 33.4% |
| Cc1ccc2[nH]cc(S(=O)(=O)c3ccc(C)c(C)c3)c(=O)c2c1 | -17.8% |
| CCCCCCN(C(=O)CCCCCN1C(=O)NC(c2ccc(-c3ccccc3)cc2)C(C(=O)OCc2ccccc2)=C1C)C(C(=O)NCCCC)c1ccccn1 (configuration not stated) | active: 31% |
| Cc1ccc(F)cc1NC(=O)CCc1c(C)nn(-c2ccc(N3CCOCC3)nn2)c1C | 9.53% |
| Cc1ccccc1S(=O)(=O)N(CC(O)CN1CCCCC1)c1ccccc1 (configuration not stated) | active: 53.7% |
| CC1Cn2c(C(=O)NCCc3ccc(Cl)cc3)cc3cccc(c32)S1 (configuration not stated) | 1.78% |
| Cc1c(C(=O)N2CCCC2)oc2c1-c1nn(CC(=O)NCc3ccccc3Br)cc1CC2 | -12.1% |
| Cc1ccc(/C=C/c2onc(C)c2S(=O)(=O)N2CCC(C(=O)N3CCOc4ccc(C)cc43)CC2)cc1 | -19.3% |
| COc1ccc(C)cc1NC(=O)CCc1c(C)nn(-c2ccc(N3CCCCC3)nn2)c1C | 9.59% |
| COc1ccc(NC(=O)CCS(=O)(=O)c2nc(-c3ccc4c(c3)OCO4)cc(C(F)(F)F)n2)cc1 | -10.4% |
